The results in this text go back to paper PMC10668032.

Some of the results follow. At the low end of the ranking, values are background and their order means little.

In the assay the target is SIX1-Q177R homeodomain (UniProt Q15475). Briefly: universal protein binding microarray. To be noted: Universal all-10-mer PBM (8x60K, AMADID 030236), 300 nM GST-tagged protein, Alexa Fluor 488 anti-GST; buffer, salt, pH and temperature not stated; high values mean tight binding; most listed sequences are background and not binding sites; double strand, one strand shown.
On to AATGGCCC, for which the binding signal is -0.276 E-score. Take TGAGAACA: the binding signal was determined as 0.0348 E-score. Under ATATATAT stands -0.145 E-score. Under CGGGGCCA stands -0.0178 E-score; under CCACGCCG, -0.0403 E-score. Under CACTATAC stands 0.261 E-score; under ACATCCGT, -0.0748 E-score; under ACAAGTCA, -0.233 E-score. Consider AATAGTCT, for which the binding signal was -0.254 E-score. Turning to GGGTGTGA, the binding signal was 0.429 E-score. As for ATGGCTTG, the binding signal is -0.0562 E-score. For AGGTGAAT, the binding signal is -0.033 E-score.

For ACGCTATG, the binding signal came out at 0.0111 E-score. Under ATGGAACA stands 0.0415 E-score; under ACGATAGG, 0.0593 E-score; under ATTCATTA, -0.0362 E-score. Under GTACATTA stands -0.00548 E-score; under TCTCATCA, -0.0864 E-score; under CATCTTTC, 0.0146 E-score. Under CGTTCATA stands -0.0546 E-score; under ACTAATAA, -0.198 E-score; under ACGCACCA, 0.134 E-score. CATTGGGA: the binding signal is -0.21 E-score. Under ATTCAGGC stands -0.243 E-score.

In the case of AAATTCCC, the binding signal is -0.156 E-score. Under GCTGAAGA stands -0.312 E-score. With CCGGCTCA, the binding signal is 0.0414 E-score.

As to AGACGTCC, the binding signal is -0.192 E-score.

Turning to GCCTTCAC, the binding signal was -0.119 E-score.

For the sequence AGATATGG, the binding signal was -0.113 E-score. Take GTCTGATA: the binding signal came to 0.0761 E-score. With AGGTGATC, the binding signal was -0.0504 E-score. For ACCGACCT, the binding signal amounted to 0.0331 E-score.

On to TACTTGGA, for which the binding signal was -0.0133 E-score. In the case of GACCAGGA, the binding signal was -0.00609 E-score. Under AGCGCGAT stands -0.0565 E-score; under ACAAAGGG, -0.0167 E-score; under ACACCGGA, 0.476 E-score.

With AAAAGACC, the binding signal is -0.205 E-score.

On to AAGATGCC, for which the binding signal was -0.145 E-score.

For the sequence CAACATGC, the binding signal is -0.303 E-score.

CGAGTGCA: the binding signal came to 0.129 E-score. Under GGACGGCA stands -0.204 E-score; under TCTGTCAA, -0.231 E-score. Under AGTTCACC stands 0.0502 E-score; under AGAGTGGG, -0.0117 E-score; under GCGATCGC, -0.0966 E-score. Under CATATAAA stands -0.2 E-score; under CTGCTCAA, -0.097 E-score. Turning to ACTTGCAT, the binding signal was -0.128 E-score. Under CACCCTCG stands 0.349 E-score; under AAAATTCG, 0.00079 E-score.

As for GTCGCGTA, the binding signal was 0.0906 E-score. Under GGGTTGTA stands 0.169 E-score; under GTCTGTTA, -0.0735 E-score; under GACCACTC, -0.157 E-score. Under ACTAAACT stands -0.263 E-score; under CTTTCTTA, -0.153 E-score; under GGACCGAA, -0.205 E-score. Under GCATCCAA stands -0.172 E-score. Consider ACCTCTCG, for which the binding signal was 0.0171 E-score. Under GTTGAAGA stands -0.0577 E-score; under CGACGTTC, -0.262 E-score; under CAAATGAA, -0.158 E-score.

As for AATCTAAG, the binding signal was -0.18 E-score. Under AACTCAGT stands -0.0907 E-score; under CAGCTACA, 0.191 E-score. Under TAATCCGA stands -0.0462 E-score. Under TCGTGTAA stands 0.434 E-score. For the sequence AGACATAT, the binding signal is -0.246 E-score. Under TACAATGA stands 0.114 E-score.

Take AGGTCCAA: the binding signal was -0.128 E-score.

Consider AATGCCAC, for which the binding signal is -0.0469 E-score.

CCGGGCGC: the binding signal was -0.105 E-score. Under TGTAAGAA stands 0.294 E-score; under ACGATTTG, -0.0386 E-score. Under AAGTACTC stands -0.0367 E-score; under ATAATTTC, -0.135 E-score.

For the sequence GTATAATA, the binding signal is -0.00724 E-score.

For the sequence CCTTTCGC, the binding signal is -0.219 E-score. Under GAAGCGTC stands -0.0106 E-score; under ACGGTGTG, 0.367 E-score. Under CCGGATGA stands -0.000585 E-score; under AATAGGCT, -0.0795 E-score; under CTAAAGGA, -0.0636 E-score. Under ACTTAATA stands -0.0802 E-score. For the sequence CATAGGTC, the binding signal was -0.183 E-score.

ATCACGTA: the binding signal came to 0.0973 E-score. For GAGGACTC, the binding signal is -0.0825 E-score. Under CAACGGTA stands -0.021 E-score; under GCGGTTTA, -0.0362 E-score. Turning to ACATAGAG, the binding signal is -0.0519 E-score. For the sequence CTTCATGC, the binding signal was -0.178 E-score. Under AACTGGGA stands 0.0519 E-score.

With AGGCCCAA, the binding signal was -0.311 E-score. Under ATGCGAAT stands -0.329 E-score. For CAATGAGC, the binding signal is -0.0904 E-score. Under ATGCAGTG stands 0.232 E-score; under CACCGCGG, 0.351 E-score. Under CACCCAGG stands 0.284 E-score.

For CGCGATTC, the binding signal was found to be 0.016 E-score. Under GAGGATAA stands 0.0709 E-score. Under AGAGTGAC stands -0.0875 E-score. Under ATAGTTCC stands -0.232 E-score. As to GCTGTCGA, the binding signal was -0.332 E-score. Under CTGGACCA stands -0.154 E-score; under AAAATGAC, -0.0334 E-score; under AGCCTCCT, -0.276 E-score.

Turning to ACAGAACG, the binding signal was -0.0743 E-score. Consider ACCCGAGC, for which the binding signal came to 0.146 E-score.

As to ACACAGCG, the binding signal was 0.196 E-score. Under ACTCTGCG stands 0.0339 E-score; under CACCAATG, 0.222 E-score. Under ACACTATA stands 0.322 E-score; under TAGGCCTA, -0.144 E-score. Under CTTTTATA stands -0.238 E-score; under ATCAGGTG, 0.224 E-score; under AGACTAGG, -0.218 E-score. In the case of CCGTTATA, the binding signal was determined as 0.101 E-score. Under CTAAGGAG stands -0.0501 E-score. Under CCGTGCAC stands 0.198 E-score. Under CAAAGCAA stands 0.0161 E-score; under CATGGGAG, -0.0641 E-score. As for TTCCCCAA, the binding signal is -0.0193 E-score.

As for CGAATCGA, the binding signal is -0.0345 E-score. Under AAGTCCTA stands -0.214 E-score; under AAAGTTGT, -0.197 E-score. In the case of CGCCGCCA, the binding signal is -0.0907 E-score. Under CCGGAGTA stands 0.227 E-score. Under GGAGAGCC stands -0.0878 E-score; under CGCGGACA, 0.0585 E-score; under GTTGGTTA, 0.129 E-score. Under AAGGGGAC stands -0.181 E-score; under CGCGCCAG, -0.0751 E-score; under CATCCGCC, -0.0303 E-score. For the sequence ACAGCAAG, the binding signal was -0.156 E-score. Under ATCTCTTA stands -0.0975 E-score; under AAAAGCTC, -0.276 E-score; under ATGGTTGG, -0.0836 E-score. Under CCGTAACG stands 0.0194 E-score; under ATTGCCCA, -0.0279 E-score. Under CGGTACAA stands -0.102 E-score; under GTTGTCAA, -0.0409 E-score; under CAAAGATA, -0.0257 E-score. In the case of CGCCGAGC, the binding signal is -0.25 E-score. Under AATTGACC stands 0.112 E-score; under AACCGGGC, -0.186 E-score; under CAAACAAC, -0.00032 E-score. Under CATAGGCC stands -0.122 E-score. Under GAGCCCCC stands -0.166 E-score. Take CACATGCA: the binding signal came out at 0.103 E-score.

For the sequence ATGCTTAA, the binding signal was -0.0996 E-score.

On to ATGATATA, for which the binding signal is -0.243 E-score. Under GCTAGCCA stands -0.238 E-score. Under ATGTTGGA stands 0.00122 E-score; under CCGTGTCG, 0.441 E-score; under CTTCTTGA, -0.155 E-score. Under AAATCCTG stands -0.258 E-score; under AGACCCAG, -0.0324 E-score; under CAGGTCGG, -0.00688 E-score.

Take CATAGATA: the binding signal is -0.244 E-score. Regarding CATAGGCA, the binding signal is -0.143 E-score. On to CCCTGAGC, for which the binding signal came out at 0.0966 E-score. Under CCGTCCAA stands -0.154 E-score; under CAGAAGAG, -0.176 E-score. Under CAGCTTAG stands -0.13 E-score; under AACGCTGT, -0.0876 E-score; under AAGAAAAT, -0.165 E-score. CACATTGC: the binding signal worked out at 0.0902 E-score. Under AAAGTTTG stands -0.27 E-score; under ACCGTGCC, 0.179 E-score.

As for AGCGGACG, the binding signal is -0.237 E-score.
